“And” between values parts separate entries of the source, which are not always exact repeats. Equal values may be shown once. The whole screen tested about 48,000 compounds, of which about 1,200 (2.5%) were called active. Inconclusive results (about 2%) are left out.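 Rule for the calls: active = activation of at least 60% and not above a set upper limit (about 1 call in 100 departs from these limits); inconclusive = activation of 40% to 60%, or above that upper limit; inactive = activation under 40%.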 The list shows a part of the results.
These molecules were tested against Probable G-protein coupled receptor 32 (Homo sapiens) (UniProt O75388) (assay: qHTS for Agonists of Human Resolvin D1 Receptor DRV1). Settings: CHO-K1 GPR32 beta-arrestin PathHunter luminescence, 90 min; at 76.9 µM; stronger effect = higher value; zero percent set by DMSO-only wells.
UniProt O75388, sequence (O75388 whole entry, looked up): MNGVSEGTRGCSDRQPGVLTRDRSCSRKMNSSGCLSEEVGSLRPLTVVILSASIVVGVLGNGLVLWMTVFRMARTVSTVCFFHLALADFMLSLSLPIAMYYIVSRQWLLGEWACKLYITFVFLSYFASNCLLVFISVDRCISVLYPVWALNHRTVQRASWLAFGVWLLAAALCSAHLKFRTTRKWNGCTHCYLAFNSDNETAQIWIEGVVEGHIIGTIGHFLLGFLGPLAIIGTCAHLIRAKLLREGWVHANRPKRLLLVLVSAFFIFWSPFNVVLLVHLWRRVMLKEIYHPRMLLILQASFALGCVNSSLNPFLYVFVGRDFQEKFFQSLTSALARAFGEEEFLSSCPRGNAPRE
How it was run: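 Beta-arrestin recruitment read-out: luminescence from complemented beta-Gal in CHO-K1 GPR32 PathHunter cells, measured 1 h after detection reagent at ambient temperature following 90 min compound exposure at 37 °C; DMSO served as basal (EC0) control.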

| Compound | activation |
| --- | --- |
| COc1ccc2c(c1)c(CC(=O)Nc1cccc(F)c1C)c(C)n2C(=O)c1ccc(Cl)cc1 | inactive: -9.33% |
| O=C(Nc1ccc(F)c(F)c1)c1cc(S(=O)(=O)N2CCc3ccccc32)ccc1F | inactive: -33.3% |
| COc1cccc(-n2ccn(CC(=O)Nc3ccccc3F)c(=O)c2=O)c1 | inactive: 2.73% |
| Cc1ccc(CNS(=O)(=O)c2cc(C(=O)Nc3ccc(C(C)C)cc3)ccc2F)cc1 | inactive: 9.47% |
| COc1ccc(C2=C(C)C(N3CCC(C(=O)NCc4ccco4)CC3)=NS2(=O)=O)cc1 | inactive: -1.8% |
| CC(C)NC[C@H](O)COc1cccc2[nH]ccc12 | inactive: -6.92% |
| CCc1ccccc1NC(=O)Cn1cc(C(=O)c2ccc(Cl)cc2)c(=O)c2ccc(C)nc21 | inactive: 0.886% |
| Cc1ccc(CNC(=O)CSCc2nc(-c3ccc(Cl)cc3)oc2C)cc1 | inactive: -16.3% |
| COc1cccc(-c2ccnc3c(-c4ccccc4)c(C)nn23)c1 | inactive: -2.68% |
| CCOC(=O)c1[nH]c2ccccc2c1NC(=O)c1cc(OC)cc(OC)c1 | inactive: -10.7% |
| Cc1cccc(N2CCN(C(=O)COCc3cc(-c4ccc5c(c4)OCO5)on3)CC2)c1C | inactive: -17.2% |
| COc1ccc(-c2cc(C(=O)NCCc3ccc(Cl)cc3)[nH]n2)cc1 | inactive: 1.68% |
| Cc1ccccc1-c1nc2c3c(-c4ccccc4)c(-c4ccccc4)oc3ncn2n1 | inactive: -17.4% |
| CCOc1ccc(NC(=O)N2CCC(CN3CCC(C)CC3)CC2)cc1 | inactive: 7.92% |
| COc1ccc(-c2cc(C(=O)Nc3cccc(C(C)=O)c3)no2)cc1OC | inactive: 15.3% |
| COC(=O)c1ccccc1NC(=O)COCc1cc(-c2cccs2)on1 | inactive: -8.17% |
| CCn1c(=O)n(-c2ccc(F)c(Cl)c2)c(=O)c2sc3ccccc3c21 | inactive: 30.9% |
| Cc1ccc(CN(C(=O)c2ccc(F)cc2)c2ccccn2)o1 | inactive: -37.7% |
| Cc1ccc(CNc2nc3c(c(=O)n(C)c(=O)n3C)n2Cc2ccc(Cl)cc2)cc1 | inactive: 8.98% |
| Cc1cccc(-n2nnc(-c3nc(-c4ccccc4)no3)c2N)c1C | inactive: 2.03% |
| COc1cccc(CNC(=O)c2ccc3c(c2)nc2n3CCOC2)c1OC | inactive: -5.34% |

| Compound | activation |
| --- | --- |
| Cc1ccc(C)c(NC(=O)CN2CCN(C3CCCCC3)C(=O)C2=O)c1 | inactive: 40.6% |
| CC1CCN(S(=O)(=O)c2ccc3c(ccn3CC(=O)NCc3ccccc3F)c2)CC1 | inactive: 28.6% |
| CCn1cc(C(=O)NCCc2ccc(OC)c(OC)c2)c(=O)c2cc(S(=O)(=O)N3CCOCC3)ccc21 | inactive: -31.3% |
| Cc1ccc(C(=O)Nc2nnc(S(=O)(=O)N(C)Cc3ccco3)s2)cc1 | inactive: 1.46% |
| CCc1nc2c(cnn2-c2ccc(C)cc2)c(=O)n1-c1ccc(C)cc1 | inactive: -4.43% |
| Cc1cnc(C(=O)NCCc2ccc(S(=O)(=O)NC(=O)NC3CCCCC3)cc2)cn1 | inactive: -2.26% and inactive: 8.31% |
| Cc1ccc(-c2noc(C(C)NC(=O)c3ccco3)n2)cc1 (stereo not drawn) | inactive: 0% |
| CC(C)(C)C1CCc2nc(NC(=O)COc3ccccc3[N+](=O)[O-])sc2C1 (stereo not drawn) | inactive: -1.99% |
| COc1ccc2c(CNC3CCCC3)c(C(=O)O)n(Cc3ccccc3C)c2c1 | inactive: -7.55% |
| CCc1nn2c(=O)cc(COC(=O)c3cccc(NC(=O)c4ccccc4C)c3)nc2s1 | inactive: -7.66% |
| COCCCNC(=O)CSc1nc2cc3c(cc2c(=O)n1CCCCCC(=O)NCCc1ccc(OC)c(OC)c1)OCO3 | inactive: -4.57% |
| CC(C)C(=O)Nc1cccc(C(F)(F)F)c1 | active: 60.7% |
| CC1=C(c2ccc(C)cc2)S(=O)(=O)N(Cc2ccc(C(=O)NCc3ccccc3)cc2)C1=O | inactive: -16.2% |
| O=C(NCc1ccc(F)cc1)c1ccc2c(c1)N(Cc1c(F)cccc1Cl)C(=O)CS2 | inactive: -14.4% |
| Cc1cc(C)c2c(=O)cc(C(=O)Nc3sc4c(c3C#N)CCCC4)oc2c1 | inactive: 28.6% |
| O=C(Nc1cc(C(F)(F)F)ccc1Cl)c1noc2c1CCCCC2 | inactive: 49.8% |
| Cc1ccccc1NC(=O)CN1C(=O)C2(SCC(=O)N2c2ccc(F)cc2)c2ccccc21 (stereo not drawn) | inactive: -3.18% |
| COc1cc(NC(=O)Cn2c(=O)n(CC(=O)NCCc3ccc(OC)c(OC)c3)c(=O)c3sccc32)cc(OC)c1 | inactive: -18.9% |
| Cc1nc(-c2ccc(S(=O)(=O)N3CCN(c4cccc(Cl)c4)CC3)cc2)co1 | inactive: 13% |
| CC(=O)c1cccc(NC(=O)c2sc(-n3nc(C)c(CCC(C)C)c3C)nc2C)c1 | inactive: 2.16% |
| CC(=O)Nc1ccc(S(=O)(=O)NCC2CCC(C(=O)NCc3ccccc3Cl)CC2)cc1 (stereo not drawn) | inactive: -4.03% |

| Compound | activation |
| --- | --- |
| COc1cccc(Nc2sc(C(=O)c3ccc4c(c3)OCO4)c(N)c2S(=O)(=O)c2ccccc2)c1 | inactive: -25.4% |
| COc1ccc(-n2nnnc2C2CCN(S(=O)(=O)c3ccc(F)cc3Cl)CC2)cc1 | inactive: -16.8% |
| COc1ccc(N2CC(NC(=O)Cc3cccs3)CC2=O)cc1 (stereo not drawn) | inactive: -8.24% |
| CC(=O)NCCNc1nc2c(-c3cccc(C)c3)nnn2c2ccc(Cl)cc12 | inactive: -3.72% |
| CSc1ccc(CNC(=O)Cc2csc3ccccc23)cc1 | inactive: -17.4% |
| CCn1c(C)c(C)c2cc(C(=O)NCc3ccc(N(C)C)cc3)ccc21 | inactive: -22.5% |
| COc1ccc(CNC(=O)CN(c2cc(C(F)(F)F)ccc2Cl)S(C)(=O)=O)cc1 | inactive: 29.5% |
| COc1ccc(C2=NC3(CCCCCC3)N(CC(=O)Nc3ccc(C)c(C)c3)C2=O)cc1 | inactive: -8.73% |
| Cc1ccc2ncc(S(=O)(=O)c3ccccc3)c(N3CCCCC3C)c2c1 (stereo not drawn) | inactive: -29.8% |
| COc1ccc(Cl)cc1NC(=O)Cn1ncc2c3ccccc3n(Cc3ccccc3)c2c1=O | inactive: -8.72% |
| Cc1ccc(C(=O)c2oc3ccccc3c2NC(=O)c2cc(-c3ccc(Cl)cc3)on2)cc1 | inactive: 5.99% |
| Cc1ccccc1Nc1sc(C(=O)c2ccc(F)cc2)c(N)c1C(=O)NCCc1ccccc1 | inactive: -63.5% |
| O=C(COc1ccccc1Cl)N(Cc1ccco1)Cc1ccco1 | inactive: -13.3% |
| Cc1ccccc1C(=O)Oc1cc(-c2ccc3c(c2)OCO3)cc(=O)c2c(C)oc(C)c12 | inactive: -12.8% |
| CN(C)c1ccc(NC(=O)CSc2nc(-c3ccco3)cc(C(F)(F)F)n2)cc1 | inactive: -2.28% |
| O=C(NCc1ccc(F)cc1)C1CCN(S(=O)(=O)c2ccc3c(c2)CCCN3C(=O)C2CCC2)CC1 | inactive: -5.06% |
| CCOc1cc(CNC(=O)c2ccc3c(c2)nc2n3CCCCC2)ccc1OC | inactive: -10.5% |
| O=C(NCc1ccc(F)cc1)c1cnc(N2CCOCC2)c2ccccc12 | inactive: -12.1% |
| Cc1cc(C)cc(NC(=O)C2CCCN(c3cnccn3)C2)c1 (stereo not drawn) | inactive: -3.86% |
| Cc1ccc(Cl)cc1NC(=O)c1cc2c(=O)n3cccc(C)c3nc2n1C | inactive: -4.22% |
| Cc1ccc(S(=O)(=O)c2cnc(SCC(=O)Nc3ccccc3C(F)(F)F)[nH]c2=O)cc1C | inactive: -2.45% |

| Compound | activation |
| --- | --- |
| CC1CCN(CCCNC(=O)CN2C(=O)CSc3ccc(S(=O)(=O)N4CCC(C)CC4)cc32)CC1 | inactive: -14% |
| Cc1ccc(N2CCN(C(=O)c3ccc(Nc4nc5ccccc5n5nnnc45)cc3)CC2)c(C)c1 | inactive: -25.3% |
| COc1ccccc1N1CCN(S(=O)(=O)c2c(C)sc3ncn(CC(=O)Nc4ccc(C(C)C)cc4)c(=O)c23)CC1 | inactive: -0.0507% |
| COc1ccc(-n2c(=O)c3c4c(sc3n(CC(=O)N3CCCCC3C)c2=O)CCC4)c(OC)c1 (stereo not drawn) | inactive: -0.439% |
| O=S(=O)(O)c1cc(I)c(O)c2ncccc12 | active: 105% |
| COc1ccc(Cl)cc1NC(=O)CSc1nc2c([nH]c3ccccc32)c(=O)n1-c1ccccc1 | inactive: -14% |
| Cc1ccc(S(=O)(=O)N2CCN(Cc3ccccc3)CC2)c(C)c1NS(C)(=O)=O | inactive: 3.67% |
| Cc1cccc(Cn2c(=O)n(CCCCC(=O)NCc3ccc4c(c3)OCO4)c(=O)c3ccccc32)c1 | inactive: -17.4% |
| O=C(NC1CCCC1)c1cnn(-c2ccc(F)cc2F)c1C1CCNCC1 | inactive: -2.77% |
| CCC(=O)O[C@]1(C(=O)COC)[C@@H](C)C[C@H]2[C@@H]3CCC4=CC(=O)C=C[C@]4(C)C3(F)[C@@H](O)C[C@@]21C (stereo partly drawn) | inactive: 9.17% |
| Cc1ccc(C2=NC(c3ccc(F)cc3)=Nc3ccc(C)cc3N2)cc1 | inactive: -7.2% |
| CCSc1nnc2c(n1)OC(c1ccc(OC)cc1OC)N(C(C)=O)c1ccccc1-2 (stereo not drawn) | inactive: -33.8% |
| COc1ccc(CCNC(=O)Cn2c(=O)n(-c3ccc(OC)c(OC)c3)c(=O)c3ccccc32)cc1OC | inactive: 4.56% |
| COc1ccccc1OCC1CNC(=O)O1 (stereo not drawn) | inactive: 4.77% |
| CCN(CC)CCNC(=O)CN1C(=O)c2cccnc2Oc2ccc(C)cc21 | inactive: -5.37% |
| COc1ccccc1OCCCCn1c(C2CC(=O)N(c3ccccc3Cl)C2)nc2ccccc21 (stereo not drawn) | inactive: -1.53% |
| Cc1ccc(NC(=O)/C(C#N)=C/c2ccccc2Cl)cc1C | inactive: 37.7% |
| CCN(C(=O)c1sc2cc(OC)ccc2c1Cl)c1ccccc1 | inactive: -0.742% |
| Cc1ccc(NC(=O)CN2c3ccccc3S(=O)(=O)c3ccccc32)cc1F | inactive: 28.3% |
| CN(Cc1ccccc1)Cc1c(O)ccc2c(=O)c(-c3ccccc3)c(C(F)(F)F)oc12 | inactive: -9.73% |
